Results on 56 compounds are retold here after PMC4336329 (PLoS ONE, 2015).

The campaign covered roughly 310,000 compounds. About 2,200 (0.71%) showed an effect of 50% or more. Effects have a minus sign here. This is one part of the list.

Chain of human ether-à-go-go-related gene (hERG) potassium channel (Q12809 whole entry, looked up): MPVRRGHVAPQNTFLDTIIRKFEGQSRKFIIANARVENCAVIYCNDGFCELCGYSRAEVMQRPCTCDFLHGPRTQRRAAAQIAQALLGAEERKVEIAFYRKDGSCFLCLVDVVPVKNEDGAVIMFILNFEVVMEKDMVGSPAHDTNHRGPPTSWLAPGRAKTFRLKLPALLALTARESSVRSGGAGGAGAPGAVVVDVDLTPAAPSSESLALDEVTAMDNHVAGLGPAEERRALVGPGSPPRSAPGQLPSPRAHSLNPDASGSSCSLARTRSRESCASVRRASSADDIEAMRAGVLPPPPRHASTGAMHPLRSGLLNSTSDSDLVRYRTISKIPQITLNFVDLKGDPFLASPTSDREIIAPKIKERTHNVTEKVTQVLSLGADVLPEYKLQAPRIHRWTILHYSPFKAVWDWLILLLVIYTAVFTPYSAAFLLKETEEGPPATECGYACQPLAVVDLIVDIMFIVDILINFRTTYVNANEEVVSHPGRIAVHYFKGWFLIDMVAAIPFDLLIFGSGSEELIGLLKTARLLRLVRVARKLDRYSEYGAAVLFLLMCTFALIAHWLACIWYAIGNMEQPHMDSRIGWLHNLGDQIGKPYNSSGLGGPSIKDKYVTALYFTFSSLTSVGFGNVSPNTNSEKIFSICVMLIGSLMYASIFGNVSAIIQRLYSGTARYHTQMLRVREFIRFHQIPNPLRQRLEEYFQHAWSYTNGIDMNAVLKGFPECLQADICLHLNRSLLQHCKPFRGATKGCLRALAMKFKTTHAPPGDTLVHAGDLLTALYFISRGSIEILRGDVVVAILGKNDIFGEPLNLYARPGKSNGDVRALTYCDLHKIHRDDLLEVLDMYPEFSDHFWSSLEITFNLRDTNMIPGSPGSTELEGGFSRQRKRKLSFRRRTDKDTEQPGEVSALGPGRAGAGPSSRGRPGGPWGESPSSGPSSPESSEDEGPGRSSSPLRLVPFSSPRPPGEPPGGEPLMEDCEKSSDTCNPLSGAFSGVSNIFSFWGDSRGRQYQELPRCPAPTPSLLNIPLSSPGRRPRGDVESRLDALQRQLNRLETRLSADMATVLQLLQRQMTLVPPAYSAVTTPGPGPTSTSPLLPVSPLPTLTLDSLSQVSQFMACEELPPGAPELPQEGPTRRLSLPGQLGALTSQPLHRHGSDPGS

This experiment has as its target human ether-à-go-go-related gene (hERG) potassium channel (human, UniProt Q12809). Nature of the experiment: primary screen, population patch clamp on CHO cells stably expressing hERG.
Turning to `O=C(C1CCCN(Cc2ccc(Br)cc2)C1)N1CCCCC1.O=C(O)C(=O)O` (centres unmarked), the “hERG current change (%, negative = inhibition) at 1uM” value is recorded as -4.36%.

As to `O=c1[nH]c(=S)n(-c2ccccc2F)c(O)c1C=NCc1ccco1`, the “hERG current change (%, negative = inhibition) at 1uM” value is on record as 9.46%.

Regarding `Cc1cccn2c(=O)c(/C=N/O)c(N3CCOCC3)nc12`, the “hERG current change (%, negative = inhibition) at 1uM” value came out at 14%.

For `O=C(O)CSc1nnc(-c2ccncc2)n1-c1ccc(Cl)cc1`, the “hERG current change (%, negative = inhibition) at 1uM” value is listed as -3%.

On to `O=C(CSc1ccc(F)cc1)Nc1ccccc1Br`, for which the “hERG current change (%, negative = inhibition) at 1uM” value amounted to 13.7%.

In the case of `CCCCC1N2CC3([N+](=O)[O-])CN1CC([N+](=O)[O-])(C2)C3(C)C` (centres unmarked), the “hERG current change (%, negative = inhibition) at 1uM” value came to 11.1%.

For `Cc1ccccc1NC(=O)Nc1nc2ccc(S(C)(=O)=O)cc2s1`, the “hERG current change (%, negative = inhibition) at 1uM” value was determined as 3.79%.

As for `COc1cc(NC(=O)COC(=O)CC(NC(C)=O)c2ccccc2)cc(OC)c1` (centres unmarked), the “hERG current change (%, negative = inhibition) at 1uM” value was 8.83%.

On to `CC(C)C(=O)Nc1ccc2c3c(cccc13)CC2`, for which the “hERG current change (%, negative = inhibition) at 1uM” value amounted to 10.5%.

`N#Cc1c(-c2ccco2)cc(C2CC2)nc1SCC(=O)c1ccccc1`: the “hERG current change (%, negative = inhibition) at 1uM” value amounted to 14.9%.

For the compound `Cc1ccccc1-n1ncc(C(C)NS(=O)(=O)c2ccccc2Cl)c1C` (centres unmarked), the “hERG current change (%, negative = inhibition) at 1uM” value turned out to be 4.96%.

As to `Cc1c(C(=O)O)sc2[nH]c(=O)n(Cc3ccccc3)c(=O)c12`, the “hERG current change (%, negative = inhibition) at 1uM” value was 14.4%.

With `CCCCn1c(N)c(N(CCOC)C(=O)c2cccc(N3C(=O)c4ccccc4C3=O)c2)c(=O)[nH]c1=O`, the “hERG current change (%, negative = inhibition) at 1uM” value is reported as 13.7%.

Consider `CCCCCCCNC(=O)C1(CC2CC(c3ccc(Cl)cc3)=NO2)CCN(C(=O)CCCCCBr)CC1` (centres unmarked), for which the “hERG current change (%, negative = inhibition) at 1uM” value is on record as -52.1%.

In the case of `Cc1nnc(NC(=O)CSc2nnc(C)n2Cc2ccccc2)s1`, the “hERG current change (%, negative = inhibition) at 1uM” value was 15.9%.

As for `COc1ccc(NC(=O)Cc2cccs2)c(OC)c1`, the “hERG current change (%, negative = inhibition) at 1uM” value came to 2.52%.

With `CCc1cccc(C)c1Nc1nc2ccccc2n2cnnc12`, the “hERG current change (%, negative = inhibition) at 1uM” value is on record as -6.58%.

For `CC(O)CNc1ccc(-c2n[nH]c(=O)c3ccccc23)cc1[N+](=O)[O-]` (centres unmarked), the “hERG current change (%, negative = inhibition) at 1uM” value is recorded as 6.59%.

Turning to `Cc1ccc(Oc2ncccc2NC(=O)CC(CC(=O)O)c2ccccc2)c2c1CCC2` (centres unmarked), the “hERG current change (%, negative = inhibition) at 1uM” value was 10.1%.

For `COc1ccc(N/C=C/C(=O)C(C)(C)C)cc1`, the “hERG current change (%, negative = inhibition) at 1uM” value was 2.04%.

In the case of `O=C(c1ccc2c(c1)OCO2)N1CCC2(CC1)Oc1ccc(F)cc1C(=O)C21CC(c2cccnc2)=NO1` (centres unmarked), the “hERG current change (%, negative = inhibition) at 1uM” value is 4.11%.

Regarding `Cc1ccc(-n2nc(C(=O)NN)c(C)c(C#N)c2=O)cc1Cl`, the “hERG current change (%, negative = inhibition) at 1uM” value is 12.5%.

Turning to `COc1ccc2[nH]c3c(c2c1)CCNC3C1CC=C(C)CC1.Cl` (centres unmarked), the “hERG current change (%, negative = inhibition) at 1uM” value is reported as 5.8%.

For the compound `CC(=O)c1sc(-c2ccccc2)cc1NS(=O)(=O)c1ccc(C)cc1`, the “hERG current change (%, negative = inhibition) at 1uM” value is listed as 7.24%.

On to `CN(C(=O)COC(=O)CSc1cc(Cl)ccc1Cl)c1c(N)n(Cc2ccccc2)c(=O)[nH]c1=O`, for which the “hERG current change (%, negative = inhibition) at 1uM” value was 2.32%.

As to `CCOc1ccc([C@@H]2CC=C(C(=O)O)[C@H](c3ccc(Cl)cc3)N2S(=O)(=O)c2ccc(C)cc2)cc1`, the “hERG current change (%, negative = inhibition) at 1uM” value is listed as 14.7%.

As to `Cc1cnc(CN(C)C(=O)C2CCC(=O)N(CCc3ccccc3)C2)[nH]1` (centres unmarked), the “hERG current change (%, negative = inhibition) at 1uM” value came to 16.3%.

Turning to `Cc1ccnc2nc(C(=O)OCC(=O)NC(=O)NCc3ccco3)nn12`, the “hERG current change (%, negative = inhibition) at 1uM” value was found to be 14.5%.

On to `Cc1nn(C)c(C)c1NS(=O)(=O)c1ccc(Cl)cc1`, for which the “hERG current change (%, negative = inhibition) at 1uM” value is 6.13%.

As to `CC(CCc1ccccc1)NC(=O)C1CCN(c2nnc(-n3cccc3)s2)CC1` (centres unmarked), the “hERG current change (%, negative = inhibition) at 1uM” value amounted to 9.13%.

On to `O=C(O)c1ccccc1C(=O)NC1CCCCNC1=O` (centres unmarked), for which the “hERG current change (%, negative = inhibition) at 1uM” value is given as 13.5%.

With `O=C(NCC1CCCO1)C1CCCN1C(=O)Nc1ccc(Cl)c(Cl)c1` (centres unmarked), the “hERG current change (%, negative = inhibition) at 1uM” value is -1.87%.

Take `CCOC(=O)C1=C(C)NC2=C(C(=O)CC(C)(C)C2)C1c1coc2ccccc2c1=O` (centres unmarked): the “hERG current change (%, negative = inhibition) at 1uM” value is given as 16.1%.

As for `CCOc1ccccc1NC(=O)Nc1ccccn1`, the “hERG current change (%, negative = inhibition) at 1uM” value is -1.49%.

On to `Cc1ccc(Nc2c(N)c(=O)oc3ccccc23)cc1`, for which the “hERG current change (%, negative = inhibition) at 1uM” value was -1.81%.

With `Cc1cccc(-c2c3c(=O)n(C)c(=O)n(C)c3cn2C2CCCCC2)c1`, the “hERG current change (%, negative = inhibition) at 1uM” value amounted to 14.9%.

Regarding `CC(=O)Nc1ccc(N(CC(=O)NC2CCCCC2)C(=O)Cn2nnc(-c3ccccc3)n2)cc1`, the “hERG current change (%, negative = inhibition) at 1uM” value is reported as 11.4%.

Regarding `CC1(c2nnc(-c3ccc(F)cc3)o2)CC(c2ccc(F)cc2)=NO1` (centres unmarked), the “hERG current change (%, negative = inhibition) at 1uM” value worked out at 1.91%.

Turning to `Cc1c(-c2cc(C(=O)O)c3ccccc3n2)cnn1C`, the “hERG current change (%, negative = inhibition) at 1uM” value amounted to 5.51%.

For the compound `CCn1c(Cc2ccc(OC)cc2)nnc1SCC(=O)Nc1ccc(N2CCOCC2)cc1`, the “hERG current change (%, negative = inhibition) at 1uM” value stood at 10.6%.

On to `COc1ccc2c(c1OC)C(=O)N(c1ccc(OCc3ccccc3)cc1)C2=O`, for which the “hERG current change (%, negative = inhibition) at 1uM” value came to 14.3%.

On to `Cc1ccc(Cn2cccc(NC(=O)NC3CCCCC3)c2=O)cc1`, for which the “hERG current change (%, negative = inhibition) at 1uM” value amounted to 9.24%.

As for `CCn1c(=O)c2cc(S(=O)(=O)NCCOc3ccccc3)ccc2n(CC)c1=O`, the “hERG current change (%, negative = inhibition) at 1uM” value turned out to be 8.38%.

Take `CC(OC(=O)C1CCCCC1)C(=O)Nc1ccc(S(N)(=O)=O)cc1` (centres unmarked): the “hERG current change (%, negative = inhibition) at 1uM” value is listed as 9.37%.

As to `CN1C(=S)SC(N(O)C=C2C=CC(=O)C=C2)C1(C)C` (centres unmarked), the “hERG current change (%, negative = inhibition) at 1uM” value is 2.23%.

As for `Cc1nn(C(C)C(=O)NCc2ccc(Cl)cc2)c(=O)c2cc3occc3n12` (centres unmarked), the “hERG current change (%, negative = inhibition) at 1uM” value is reported as -0.612%.

Regarding `Cc1nc(NC(=O)c2csc3ccccc23)sc1C`, the “hERG current change (%, negative = inhibition) at 1uM” value is listed as -0.974%.

Take `Cc1cc(-n2c(C)cc(C(=O)CSc3nnnn3-c3ccccc3)c2C)no1`: the “hERG current change (%, negative = inhibition) at 1uM” value is reported as -2.58%.

In the case of `CCCCc1oc2c(c(=O)c1C)C(=O)CC(c1ccccc1)C2` (centres unmarked), the “hERG current change (%, negative = inhibition) at 1uM” value is -7.99%.

With `CCCC(=O)Nc1ccccc1N1CCN(C(=O)c2ccccc2)CC1`, the “hERG current change (%, negative = inhibition) at 1uM” value is -8.85%.

Take `COC(=O)C1C2C=CC3(CN(CC4CCCO4)C(=O)C13)O2` (centres unmarked): the “hERG current change (%, negative = inhibition) at 1uM” value is recorded as 20.1%.

For `COc1ccc[nH]c1=O`, the “hERG current change (%, negative = inhibition) at 1uM” value amounted to 1.28%.

Regarding `CC(=O)N[C@@H](C)C(=O)N1CCN(S(=O)(=O)c2ccc(Cl)cc2)CC1`, the “hERG current change (%, negative = inhibition) at 1uM” value is 3.31%.

Take `Cc1cc(NC(=O)CCC(=O)N(Cc2cccs2)C(C(=O)NC2CCCC2)c2cccnc2)no1` (centres unmarked): the “hERG current change (%, negative = inhibition) at 1uM” value is on record as 19%.

With `COc1cc2c(cc1OC)C(C(=O)Nc1ccc(F)c(Cl)c1)CC(=O)N2` (centres unmarked), the “hERG current change (%, negative = inhibition) at 1uM” value was found to be 13.9%.

`O=C(COc1ccc2c(c1)CCC2)NCc1ccc(Cl)cc1`: the “hERG current change (%, negative = inhibition) at 1uM” value was found to be 13.5%.
